The text below walks through data of US20250170268A1, “METHODS AND TOOLS FOR CONJUGATION TO ANTIBODIES” (priority 2022, published 2025).

For this test, the system named is human pancreatic adenocarcinoma cell line-derived xenograft model HPAF-II. Kind of test: HPAF-II xenograft efficacy study. Type of test: in vivo, mice (Hsd: Athymic Nude-Foxn1nu). The settings on record: single i.v. treatment at 1 or 6 mg/kg. The method, then: Efficacy of ADC1-M and ADC3-M in comparison to ADC8 was evaluated in the human pancreatic adenocarcinoma cell line-derived xenograft model HPAF-II (ATCC, CRL-1997). Six to eight weeks old immunodeficient female mice (Hsd: Athymic Nude-Foxn1nu, Envigo) were injected subcutaneously in the right flank with 5×10^6 HPAF-II cells. When tumors reached a mean volume of 150 mm^3, 10 mice/group were treated once intravenously with ADC1-M (1 mg/kg or 6 mg/kg) or with ADC3-M (1 mg/kg or 6 mg/kg) or with ADC8 (1 mg/kg or 6 mg/kg). Tumor length (L) and width (W) were measured with calipers and tumor volumes were calculated using the formula L×W^2/2.

B1: ADC8 (conjugate)
heavy: DIQLTQSPSSLSASVGDRVTITCKASQDVGTSVAWYQQKPGKAPKLLIYWTSTRHTGVPSRFSGSGSGTDFTFTISSLQPEDIATYYCQQYSLYRSFGQGTKVEIKRTVAAPSVFIFPPSDEQLKSGTASVVCLLNNFYPREAKVQWKVDNALQSGNSQESVTEQDSKDSTYSLSSTLTLSKADYEKHKVYACEVTHQGLSSPVTKSFNRGECEVQLVESGGGVVQPGRSLRLSCSASGFDFTTYWMSWVRQAPGKGLEWIGEIHPDSSTINYAPSLKDRFTISRDNAKNTLFLQMDSLRPEDTGVYFCASLYFGFPWFAYWGQGTPVTVSSASTKGPSVFPLAPSSKSTSGGTAALGCLVKDYFPEPVTVSWNSGALTSGVHTFPAVLQSSGLYSLSSVVTVPSSSLGTQTYICNVNHKPSNTKVDKRV[letters of human IgG1 Fc left out]
light: DIQLTQSPSSLSASVGDRVTITCKASQDVGTSVAWYQQKPGKAPKLLIYWTSTRHTGVPSRFSGSGSGTDFTFTISSLQPEDIATYYCQQYSLYRSFGQGTKVEIKRTVAAPSVFIFPPSDEQLKSGTASVVCLLNNFYPREAKVQWKVDNALQSGNSQESVTEQDSKDSTYSLSSTLTLSKADYEKHKVYACEVTHQGLSSPVTKSFNRGEC
As to B1, the “anti-tumor effect, HPAF-II xenograft, 1 or 6 mg/kg” value is “no significant anti-tumor effect”.
